Measured values reported in article PMC5851678, “Phosphorylation decelerates conformational dynamics in bacterial translation elongation factors” (Science Advances, 2018).

Legend:
[1] = molecular target: T1, Translation elongation factor Tu (EF-Tu), Escherichia coli, nonphosphorylated (Escherichia coli, UniProt P0CE47); assay: ITC; EF-Ts titrated into EF-Tu or pEF-Tu_(T382) at 25°C; nucleotide-free EF-Tu; 50 mM Hepes pH 7.4, 40 mM NH4Cl, 2 mM MgCl2, 1 mM TCEP; 5-20 uM in the cell, 100-500 uM in the syringe; conditions: both partners purified
T1 construct: Elongation factor Tu, E. coli; also called nonphosphorylated EF-Tu; wild-type EF-Tu; source: His-tagged, expressed in cells grown in LB with IPTG induction, purified (HisTrap, SEC); made nucleotide-free and dialyzed before ITC

[2] = molecular target: T2, EF-Tu phosphorylated at T382 (pEF-Tu_(T382)), Escherichia coli (Escherichia coli, UniProt P0CE47, phosphothreonine at 382 (pT382)); assay: as above; conditions: both partners purified
T2 construct: Same construct as m1, modified by Doc; Two of the deposited entries (5MI3, 5OPD, 5MI8, 5MI9) hold this molecule with GDP or GTP; also called phosphorylated EF-Tu

B1: Elongation factor Ts (EF-Ts) (natural protein)
chain: not shown
notes: Elongation factor Ts, the GDP/GTP nucleotide exchanger specific for EF-Tu; source: produced and purified in the same way as His-tagged EF-Tu (HisTrap, SEC)
In the case of B1, the Kd [1] is reported as 1.2 nM and the Kd [2] is reported as 0.81 nM.
